# Assay results taken from publication PMC9911399, “Two distinct binding modes provide the RNA-binding protein RbFox with extraordinary sequence specificity”.
# Residue numbers refer to the chain shown, from its start. This is one part of the list.
# T1: RBFOX1 RRM RbFoxmut (Fox-RRM*) (Homo sapiens, UniProt Q9NWB1 109-208, R118D;E147R;N151S;E152T)
# T1 sequence: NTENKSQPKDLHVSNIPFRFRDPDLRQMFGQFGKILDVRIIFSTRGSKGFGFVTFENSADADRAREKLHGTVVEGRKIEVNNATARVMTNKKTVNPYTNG
# B1: CAGUAGU (DNA:RNA)
# RNA: GGGAGACCGGAAUUCAGAUUGUCCCAGUAGUUUAAAUCCCGUCGUAGCCACCA
# DNA 1: CAATCTGAATTCCGGTCTCCC
# DNA 2: TGGTGGCTACGACGGGATT
# B2: ACCCUAC (DNA:RNA)
# RNA: GGGAGACCGGAAUUCAGAUUGUCCACCCUACUUAAAUCCCGUCGUAGCCACCA
# DNA 1: CAATCTGAATTCCGGTCTCCC
# DNA 2: TGGTGGCTACGACGGGATT
# B3: CCUCGGC (DNA:RNA)
# RNA: B2 RNA with A25C, C27U, U29G, A30G
# DNA 1: CAATCTGAATTCCGGTCTCCC
# DNA 2: TGGTGGCTACGACGGGATT
# B4: ACUGGAA (DNA:RNA)
# RNA: B2 RNA with C27U, C28G, U29G, C31A
# DNA 1: CAATCTGAATTCCGGTCTCCC
# DNA 2: TGGTGGCTACGACGGGATT
# B5: AUCUCUA (DNA:RNA)
# RNA: B2 RNA with C26U, C28U, U29C, A30U, C31A
# DNA 1: CAATCTGAATTCCGGTCTCCC
# DNA 2: TGGTGGCTACGACGGGATT
# B6: CAAUUAG (DNA:RNA)
# RNA: B1 RNA with G27A, A29U, G30A, U31G
# DNA 1: CAATCTGAATTCCGGTCTCCC
# DNA 2: TGGTGGCTACGACGGGATT
# B7: CAUCUUU (DNA:RNA)
# RNA: B1 RNA with G27U, U28C, A29U, G30U
# DNA 1: CAATCTGAATTCCGGTCTCCC
# DNA 2: TGGTGGCTACGACGGGATT
# B8: CUUCCCG (DNA:RNA)
# RNA: B2 RNA with A25C, C26U, C27U, U29C, A30C, C31G
# DNA 1: CAATCTGAATTCCGGTCTCCC
# DNA 2: TGGTGGCTACGACGGGATT
# B9: GAUUUAU (DNA:RNA)
# RNA: B1 RNA with C25G, G27U, A29U, G30A
# DNA 1: CAATCTGAATTCCGGTCTCCC
# DNA 2: TGGTGGCTACGACGGGATT
# B10: CUAGGAA (DNA:RNA)
# RNA: B2 RNA with A25C, C26U, C27A, C28G, U29G, C31A
# DNA 1: CAATCTGAATTCCGGTCTCCC
# DNA 2: TGGTGGCTACGACGGGATT
# B11: AGUUAGG (DNA:RNA)
# RNA: B1 RNA with C25A, A26G, G27U, U31G
# DNA 1: CAATCTGAATTCCGGTCTCCC
# DNA 2: TGGTGGCTACGACGGGATT
# B12: CGGUGUA (DNA:RNA)
# RNA: B1 RNA with A26G, A29G, G30U, U31A
# DNA 1: CAATCTGAATTCCGGTCTCCC
# DNA 2: TGGTGGCTACGACGGGATT
# B13: CCGGUUU (DNA:RNA)
# RNA: B1 RNA with A26C, U28G, A29U, G30U
# DNA 1: CAATCTGAATTCCGGTCTCCC
# DNA 2: TGGTGGCTACGACGGGATT
# B14: CCAAAUU (DNA:RNA)
# RNA: B1 RNA with A26C, G27A, U28A, G30U
# DNA 1: CAATCTGAATTCCGGTCTCCC
# DNA 2: TGGTGGCTACGACGGGATT
# B15: GCGUCGU (DNA:RNA)
# RNA: B1 RNA with C25G, A26C, A29C
# DNA 1: CAATCTGAATTCCGGTCTCCC
# DNA 2: TGGTGGCTACGACGGGATT
# B16: ACGUGAC (DNA:RNA)
# RNA: B2 RNA with C27G, C28U, U29G
# DNA 1: CAATCTGAATTCCGGTCTCCC
# DNA 2: TGGTGGCTACGACGGGATT
# B17: GACAGAC (DNA:RNA)
# RNA: B2 RNA with A25G, C26A, C28A, U29G
# DNA 1: CAATCTGAATTCCGGTCTCCC
# DNA 2: TGGTGGCTACGACGGGATT
# B18: AUUUACG (DNA:RNA)
# RNA: B1 RNA with C25A, A26U, G27U, G30C, U31G
# DNA 1: CAATCTGAATTCCGGTCTCCC
# DNA 2: TGGTGGCTACGACGGGATT
# B19: UCAAUUU (DNA:RNA)
# RNA: B2 RNA with A25U, C27A, C28A, A30U, C31U
# DNA 1: CAATCTGAATTCCGGTCTCCC
# DNA 2: TGGTGGCTACGACGGGATT
# B20: UAGGUGC (DNA:RNA)
# RNA: B1 RNA with C25U, U28G, A29U, U31C
# DNA 1: CAATCTGAATTCCGGTCTCCC
# DNA 2: TGGTGGCTACGACGGGATT
# B21: GGUGGGC (DNA:RNA)
# RNA: B2 RNA with A25G, C26G, C27U, C28G, U29G, A30G
# DNA 1: CAATCTGAATTCCGGTCTCCC
# DNA 2: TGGTGGCTACGACGGGATT
# B22: ACGGACC (DNA:RNA)
# RNA: B2 RNA with C27G, C28G, U29A, A30C
# DNA 1: CAATCTGAATTCCGGTCTCCC
# DNA 2: TGGTGGCTACGACGGGATT
# B23: AUUAUCA (DNA:RNA)
# RNA: B2 RNA with C26U, C27U, C28A, A30C, C31A
# DNA 1: CAATCTGAATTCCGGTCTCCC
# DNA 2: TGGTGGCTACGACGGGATT
# B24: CCUAUUA (DNA:RNA)
# RNA: B2 RNA with A25C, C27U, C28A, A30U, C31A
# DNA 1: CAATCTGAATTCCGGTCTCCC
# DNA 2: TGGTGGCTACGACGGGATT
# B25: UUUAGAA (DNA:RNA)
# RNA: B2 RNA with A25U, C26U, C27U, C28A, U29G, C31A
# DNA 1: CAATCTGAATTCCGGTCTCCC
# DNA 2: TGGTGGCTACGACGGGATT
# B26: CAAGCGA (DNA:RNA)
# RNA: B1 RNA with G27A, U28G, A29C, U31A
# DNA 1: CAATCTGAATTCCGGTCTCCC
# DNA 2: TGGTGGCTACGACGGGATT
# B27: UUCUUUU (DNA:RNA)
# RNA: B2 RNA with A25U, C26U, C28U, A30U, C31U
# DNA 1: CAATCTGAATTCCGGTCTCCC
# DNA 2: TGGTGGCTACGACGGGATT
# B28: CGACUUU (DNA:RNA)
# RNA: B2 RNA with A25C, C26G, C27A, A30U, C31U
# DNA 1: CAATCTGAATTCCGGTCTCCC
# DNA 2: TGGTGGCTACGACGGGATT
# B29: GCCUAAU (DNA:RNA)
# RNA: B2 RNA with A25G, C28U, U29A, C31U
# DNA 1: CAATCTGAATTCCGGTCTCCC
# DNA 2: TGGTGGCTACGACGGGATT
# B30: CUCGUAU (DNA:RNA)
# RNA: B2 RNA with A25C, C26U, C28G, C31U
# DNA 1: CAATCTGAATTCCGGTCTCCC
# DNA 2: TGGTGGCTACGACGGGATT
# B31: AUCCUUU (DNA:RNA)
# RNA: B2 RNA with C26U, A30U, C31U
# DNA 1: CAATCTGAATTCCGGTCTCCC
# DNA 2: TGGTGGCTACGACGGGATT
# Target: T1, RBFOX1 RRM RbFoxmut (Fox-RRM*)
# Experiment: EMSA; HiTS-Eq, 1 nM pool, 10 min; buffer printed only for the single-RNA assays: 10 mM Tris pH 7.5, 150 mM NaCl, 3.4 mM EDTA, 0.001% NP-40, 30 C
# Settings: tags: His6 N-terminal (pET28a); label: 5' 32P
# Procedure, shortened: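 These values rest on relative association constants, computed from read-count changes of each RNA species versus the control reaction and normalised to the cognate motif. Reads came from free RNA recovered by 8% native PAGE after purified RbFox RRM (wild type or mutant) at increasing concentrations was equilibrated for 10 min in 50 µL with 1 nM of a 5′-radiolabelled pool with 7 randomized nucleotides and DNA-annealed flanks.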
row,Binder,binding signal
1,B1,0.133 KA relative to UGCAUGU
2,B2,0.0918 KA relative to UGCAUGU
3,B3,0.0976 KA relative to UGCAUGU
4,B4,0.121 KA relative to UGCAUGU
5,B5,0.139 KA relative to UGCAUGU
6,B6,0.0887 KA relative to UGCAUGU
7,B7,0.102 KA relative to UGCAUGU
8,B8,0.0565 KA relative to UGCAUGU
9,B9,0.106 KA relative to UGCAUGU
10,B10,0.0892 KA relative to UGCAUGU
11,B11,0.105 KA relative to UGCAUGU
12,B12,0.187 KA relative to UGCAUGU
13,B13,0.0689 KA relative to UGCAUGU
14,B14,0.0728 KA relative to UGCAUGU
15,B15,0.129 KA relative to UGCAUGU
16,B16,0.0726 KA relative to UGCAUGU

row,Binder,binding signal
1,B17,0.0575 KA relative to UGCAUGU
2,B18,0.161 KA relative to UGCAUGU
3,B19,0.079 KA relative to UGCAUGU
4,B20,0.104 KA relative to UGCAUGU
5,B21,0.0553 KA relative to UGCAUGU
6,B22,0.0736 KA relative to UGCAUGU
7,B23,0.114 KA relative to UGCAUGU
8,B24,0.0858 KA relative to UGCAUGU
9,B25,0.125 KA relative to UGCAUGU
10,B26,0.0665 KA relative to UGCAUGU
11,B27,0.0804 KA relative to UGCAUGU
12,B28,0.058 KA relative to UGCAUGU
13,B29,0.0862 KA relative to UGCAUGU
14,B30,0.122 KA relative to UGCAUGU
15,B31,0.109 KA relative to UGCAUGU
